Assay results: ChEMBL document CHEMBL4888484, “Replenishing the malaria drug discovery pipeline: Screening and hit evaluation of the MMV Hit Generation Library 1 (HGL1) against asexual blood stage Plasmodium falciparum ,using a nano luciferase reporter read-out” (2022)
The campaign covered roughly 150,000 compounds. About 540 (0.36%) showed an effect of 50% or more. The list shows a part of the results.

The molecules below were run on Plasmodium falciparum (assay: Primary screen in NF54 nanoGlo assay, in single point, at 2uM, 72h; a lower Z score goes with more inhibition). Settings: timepoint 72 hour.
Assay type: functional, Erythrocyte
`CCOC(=O)C1=CN(Cc2ccc(OC)cc2)S(=O)(=O)N=C1c1ccccc1` was tested, and the “% Inhibition” value was -14% and the Z score was 1.56.
`O=C(NCCn1ccc(-c2ccsc2)n1)c1cccnc1` was tested, and the “% Inhibition” value was -8% and the Z score was 1.63.
For `O=C(Nc1cc(S(=O)(=O)N2CCOCC2)ccc1N1CCCC1)c1ccc(-n2cccn2)nc1`, the “% Inhibition” value was -13% and the Z score was 2.45.
`CC(C)(C)OC(=O)N1CCN(C2CCC(NC(=O)c3cc(F)ccc3F)CC2)CC1` (stereo not drawn) was tested, and the “% Inhibition” value was -11% and the Z score was 1.25.
With `COC1CCCC(C(=O)NCC2CCC3(CCOCC3)C2O)C1` (stereo not drawn) the “% Inhibition” value was -3% and the Z score was 0.27.
In the case of `C[C@@H](c1cc(-c2ccccc2)[nH]n1)N(C)C(=O)C1CCOCC1`, the “% Inhibition” value is reported as -11% and the Z score is reported as 1.41.
`CC(C)n1ccnc1CNC(=O)N1CCC[C@@H]1C(N)=O` was tested, and the “% Inhibition” value was 1% and the Z score was -0.2.
With `CC(C)COC[C@@H](O)CN(Cc1c(-c2ccccc2)noc1N1CCOCC1)C(C)C` the “% Inhibition” value was 19% and the Z score was -3.
In the case of `CS(=O)(=O)N(CC(=O)N1CC(=O)Nc2ccccc21)c1ccc(C(F)(F)F)cc1`, the “% Inhibition” value is reported as -19% and the Z score is reported as 3.19.
`O=C(C1=CCC1)N1C[C@H](NC(=O)C(F)(F)F)CC[C@H]1C(F)(F)F` was tested, and the “% Inhibition” value was -2% and the Z score was 0.35.
In the case of `C=CCCC(=O)N1CCC(F)(F)[C@@H](C)C1`, the “% Inhibition” value is reported as -9% and the Z score is reported as 0.88.
With `Oc1ccc([C@@H](O)CNCc2cc(O)c3cccc(Cl)c3n2)cc1` the “% Inhibition” value was 6% and the Z score was -0.84.
With `CN(C)Cc1ccoc1C(=O)NCc1cnc2nccn2c1` the “% Inhibition” value was -7% and the Z score was 0.97.
`COC(=O)C[C@](C)(NCc1ccccc1F)c1ccncc1` was tested, and the “% Inhibition” value was 2% and the Z score was -0.17.
`CN1CCN([C@H]2CCCCN(C(=O)Nc3nccs3)C2)CC1` was tested, and the “% Inhibition” value was -3% and the Z score was 0.52.
For `O=S(=O)(Nc1ccc([C@H]2CCOC2)cc1)C1CC1`, the “% Inhibition” value was 14% and the Z score was -1.62.
In the case of `CN(C)c1ncccc1NS(=O)(=O)c1cc(F)c(F)c(F)c1`, the “% Inhibition” value is reported as -4% and the Z score is reported as 0.43.
In the case of `O=C(c1cccnc1O)N1CCC[C@H](c2nccn2Cc2ccccc2)C1`, the “% Inhibition” value is reported as -7% and the Z score is reported as 1.4.
For `CCN1Cc2nc(OC)c(CNC(=O)N(C)Cc3noc(C)n3)cc2C1=O`, the “% Inhibition” value was -3% and the Z score was 0.36.
In the case of `Cc1cccc(C)c1OCCN(C)C(=O)CC[C@H]1CCCCN1C`, the “% Inhibition” value is reported as -10% and the Z score is reported as 1.4.
In the case of `COc1ccc(CCNC(=O)Cc2cc(OCc3ccccc3)c(OC)cc2Br)cc1OC`, the “% Inhibition” value is reported as -12% and the Z score is reported as 2.15.
In the case of `COc1ccc(-c2nc(NCc3ccc(F)cc3)[nH]c(=O)c2C#N)cc1`, the “% Inhibition” value is reported as -5% and the Z score is reported as 0.88.
For `CC(C)CN1Cc2cccc(NS(=O)(=O)c3cccnc3)c2C1`, the “% Inhibition” value was 29% and the Z score was -3.84.
`O=C(O)c1ccc(CN2CC[C@H](c3nc4ccccc4o3)C2)cc1` was tested, and the “% Inhibition” value was -13% and the Z score was 1.65.
For `CC1CCN(S(=O)(=O)c2ccc(CNC(=O)C3CCCCC3)s2)CC1`, the “% Inhibition” value was -32% and the Z score was 3.22.
`CCOc1cccnc1C(=O)N1CCC[C@H](c2[nH]ncc2CN2CCOCC2)C1` was tested, and the “% Inhibition” value was -4% and the Z score was 0.67.
With `O=C(c1cccc2ccccc12)N1CCc2nc(-c3cccc(F)c3)[nH]c(=O)c2C1` the “% Inhibition” value was -14% and the Z score was 1.35.
`O=C(Nc1nc(C(=O)N2CCCC2)co1)c1cnccn1` was tested, and the “% Inhibition” value was -12% and the Z score was 2.41.
For `CC(C)N1CC(=O)N(c2cc(-c3ccccc3)ns2)C1=O`, the “% Inhibition” value was -5% and the Z score was 0.51.
In the case of `CC1(C)C[C@@H]1C(=O)NCc1cccc(=O)[nH]1`, the “% Inhibition” value is reported as -7% and the Z score is reported as 1.25.
For `Cc1cc(C)n(C[C@H](O)COCc2ccco2)n1`, the “% Inhibition” value was -6% and the Z score was 1.06.
With `O=C1N[C@H]2C[C@@H](C(=O)NC[C@H]3O[C@H](CCOc4cc(-c5ccccc5)ccc41)CC[C@@H]3O)N(Cc1ccc(Cl)c(F)c1)C2` the “% Inhibition” value was 37% and the Z score was -4.16.
For `Cc1nccn1CC[C@H](C)N1CCC2(CC1)CN(CCC(C)C)C(=O)O2`, the “% Inhibition” value was -8% and the Z score was 1.55.
With `CCN(CC)C(=O)N1CC(N(Cc2ccccn2)S(C)(=O)=O)C1` the “% Inhibition” value was 2% and the Z score was -0.35.
For `Cc1noc(C)c1CC(=O)Nc1nc(-c2ccc(S(=O)(=O)N(C)C)cc2)cs1`, the “% Inhibition” value was 8% and the Z score was -1.09.
In the case of `Cc1ccc(F)c(Cn2cnc3nc(C)c(CCO)c(=O)n32)c1`, the “% Inhibition” value is reported as -6% and the Z score is reported as 1.19.
With `O=C(CCn1cncn1)Nc1cc(Cl)cc(Cl)c1` the “% Inhibition” value was -13% and the Z score was 1.68.
For `O=C(Cc1cccs1)NCCc1ccsc1`, the “% Inhibition” value was -2% and the Z score was 0.3.
For `CO[C@H]1CCCOC12CCN(C(=O)CCn1c(C)nc3ccccc31)CC2`, the “% Inhibition” value was -10% and the Z score was 0.96.
With `Cc1c(Cl)cccc1NC(=O)CC(=O)NCCNC(=O)C(C)C` the “% Inhibition” value was -5% and the Z score was 1.08.
`O=C(c1ccsc1)N1CC[C@@H](c2cccs2)S(=O)(=O)CC1` was tested, and the “% Inhibition” value was -15% and the Z score was 2.49.
For `Cc1cccc(CN2CCN(Cc3ccncc3)[C@@H]3CS(=O)(=O)C[C@@H]32)n1`, the “% Inhibition” value was -11% and the Z score was 2.25.
With `COC[C@H]1CC[C@H]1NC(=O)c1sccc1OC` the “% Inhibition” value was 3% and the Z score was -0.42.
In the case of `Cn1nnc2cc(CN(CC(=O)O)C3CCCC3)ccc21`, the “% Inhibition” value is reported as -18% and the Z score is reported as 1.61.
With `O=C(c1cn2cc(-c3ccc4c(c3)OCO4)ccc2n1)N1CCN(Cc2ccccc2)CC1` the “% Inhibition” value was -8% and the Z score was 1.24.
In the case of `CCOC(=O)[C@@]1(CCOc2ccccc2)CCCN(C)C1`, the “% Inhibition” value is reported as 6% and the Z score is reported as -0.9.
With `CC1(C)CN(C(=O)c2cc(N3CCCC3=O)cc(C(F)(F)F)c2)CCN1` the “% Inhibition” value was -3% and the Z score was 0.43.
With `CCOc1ccc(-c2noc([C@@H]3Cc4ccccc4N3C(C)=O)n2)cc1Cl` the “% Inhibition” value was 19% and the Z score was -2.19.
In the case of `O=C(Nc1ccc(Br)cn1)c1ccc(-c2ccc(Cl)c(Cl)c2)o1`, the “% Inhibition” value is reported as 31% and the Z score is reported as -3.51.
For `CCOC(=O)CNc1cccc(C(C)(F)F)c1`, the “% Inhibition” value was 4% and the Z score was -0.49.
In the case of `O=S1(=O)CCc2nnc(-c3ccc4c(c3)OCCO4)n2CC1`, the “% Inhibition” value is reported as 2% and the Z score is reported as -0.36.
With `CCC(C(=O)Nc1ccc(C)c(NC(=O)C(CC)c2ccccc2)c1)c1ccccc1` (stereo not drawn) the “% Inhibition” value was -27% and the Z score was 3.19.
For `CC1CCN(c2ncc3c(n2)CC[C@H](C(=O)N(C)CC(=O)N2CCCCCC2)C3)CC1`, the “% Inhibition” value was 5% and the Z score was -0.8.
With `CCC1(CNC(=O)N(Cc2ccccn2)Cc2sccc2C)CC1` the “% Inhibition” value was -22% and the Z score was 2.42.
`CCn1cnnc1CN(C)Cc1nc(COC)no1` was tested, and the “% Inhibition” value was 1% and the Z score was -0.12.
`N#Cc1ccc(C(=O)Nc2ccccc2OC[C@H]2CCCO2)cn1` was tested, and the “% Inhibition” value was -8% and the Z score was 1.18.
With `CCCNC(=O)CCc1nc(N2CC(C)CC(C)C2)c2c(C)noc2n1` (stereo not drawn) the “% Inhibition” value was -5% and the Z score was 0.85.
For `CC1CN(Cc2ccccn2)CCC1NC(=O)c1cccc(F)c1` (stereo not drawn), the “% Inhibition” value was -1% and the Z score was 0.18.
`CCc1noc(NC(C)=O)c1-c1ccc(OC)c(S(=O)(=O)NCc2cccc(OC)c2)c1` was tested, and the “% Inhibition” value was 1% and the Z score was -0.09.
With `O=C(Nc1ccc2c(c1)OCO2)N(Cc1ccco1)C[C@H]1CCCO1` the “% Inhibition” value was -4% and the Z score was 0.54.
`CCN(CC)CCOc1ccc2nc(N(C)C)sc2c1` [DIAMTHAZOLE] was tested, and the “% Inhibition” value was -15% and the Z score was 1.86.
For `CN(C(=O)Cc1cnn(C)c1)c1ccc(N2CCOCC2)nc1`, the “% Inhibition” value was -3% and the Z score was 0.35.
With `O=C(C1CCCC1)N1CC[C@@]2(CCCN(CC3CC3)C2=O)C1` the “% Inhibition” value was -13% and the Z score was 1.93.
`CCN1C[C@@H](CN(C)C(=O)c2cc(Cn3nc(C)cc3C)[nH]n2)CC1=O` was tested, and the “% Inhibition” value was 4% and the Z score was -0.55.
With `N#Cc1ccccc1OC1CCC(N)CC1` (stereo not drawn) the “% Inhibition” value was -5% and the Z score was 0.68.
With `Cc1cccc(NC(=O)Cn2c(C)cc(C)c2-c2nc(C(C)C)no2)c1` the “% Inhibition” value was -8% and the Z score was 1.06.
With `Nc1nc(CCCNCc2ccc(Cl)o2)cs1` the “% Inhibition” value was -25% and the Z score was 2.72.
For `COc1ccc2c(c1)N(C(=O)CCn1cc(C)cn1)[C@@H](C)C(=O)N2`, the “% Inhibition” value was -13% and the Z score was 1.97.
`CN(C)CCN(C(=O)c1ccsc1)C1CCOCC1` was tested, and the “% Inhibition” value was -13% and the Z score was 2.38.
For `CCOC[C@H]1CCCN1C(=O)Nc1ccc(Cl)c(C(=O)OCC)c1`, the “% Inhibition” value was -3% and the Z score was 0.65.
`CC1CCN(C(=O)COC(=O)CCC2NC(=O)NC2=O)C2CCCCC12` (stereo not drawn) was tested, and the “% Inhibition” value was -16% and the Z score was 1.74.
In the case of `Cc1nn(C)cc1NC(=O)N[C@@H](C)Cc1ccsc1`, the “% Inhibition” value is reported as -4% and the Z score is reported as 0.48.
For `C=CCn1nc(C(=O)O)c2c1CC[C@H](N(C)Cc1noc(CC)n1)C2`, the “% Inhibition” value was 1% and the Z score was -0.11.
With `COCc1nc(NC(=O)CCc2nc3cccnc3[nH]2)n[nH]1` the “% Inhibition” value was 5% and the Z score was -0.54.
`CCN(c1ccc(C(=O)N[C@@H](C(=O)OC)c2ccc(OC)c(O)c2)cc1)C(C)C` was tested, and the “% Inhibition” value was -8% and the Z score was 1.28.
For `COc1ccc(Cl)cc1C(=O)N1CCC[C@H](c2ccn(C)n2)C1`, the “% Inhibition” value was -1% and the Z score was 0.12.
In the case of `CC(C)CN1C[C@H](CNS(=O)(=O)c2cccnc2)OCC1=O`, the “% Inhibition” value is reported as 0% and the Z score is reported as -0.02.
With `Cc1ccc(OCC(=O)N2CCC[C@H]2c2cccs2)cn1` the “% Inhibition” value was 7% and the Z score was -0.67.
`CN(Cc1ccc[nH]1)C(=O)[C@@]1(C)CC1(F)F` was tested, and the “% Inhibition” value was -20% and the Z score was 3.07.
In the case of `CCOc1ccc(NC(=O)N2CCC[C@H]2c2nc3cc(-c4ccccc4C(F)(F)F)ccc3o2)cc1`, the “% Inhibition” value is reported as 5% and the Z score is reported as -0.66.
For `CCN(C)C(=O)c1cc(-c2ccc(C3CCCCC3)cc2)on1`, the “% Inhibition” value was -10% and the Z score was 0.96.
With `CCCn1cc(C(=O)N(C)C[C@H]2CCOC2)c(C)n1` the “% Inhibition” value was 11% and the Z score was -1.56.
In the case of `COCCN(CCOC)C1CN(C(=O)OCCCF)C1`, the “% Inhibition” value is reported as -4% and the Z score is reported as 0.62.
`CC1(C)[C@@H]2CC[C@]13CS(=O)(=O)N(Cc1nccn1C(F)F)[C@@H]3C2` was tested, and the “% Inhibition” value was 3% and the Z score was -0.36.
